Consider 167 variants from the RNAGym collection of RNA variant scans (doi:10.7554/elife.90254).

B1: LINE1-full (parent)
chain: UACGUAGGUGGUUUUCCCCUGAUAGUGCUAAGGGGGCCUGGAAGUUUGGACUGGGCAGAGCUCAACACAGCGUGGCAAAGUGGCUGUGGCUAGACUGCCUCUCUGGAUUCCUCGUCACUCAGCAGGGCAUCUCUGAGAGAAAUGCC

The source gives no read counts; variants with many changes may rest on few reads.

The series covers variants of B1. As to the kind of experiment: self-cleavage, relative activity (ratio to wild type); higher = more cleavage; in vitro, sequencing; the parent is a self-cleaving ribozyme.
Turning to U9A U20C A50G U62C A79U, the self-cleavage came to 0.19.
For U9C A94C G125A the value was 0.08; for U9A U39C A59G, 0.21; for U9A U62C A64U U73C A142G, 0.14.
The same measure for U9C G83U A94G: 0.23; for U9C U13C A42G A67G G74U: 0.61; for U9A U23C U52A U109C: 1.39.
The same measure for G7U A67U A107G: 0.17; for U9A U100C U108A: 0.6.
Consider U9A U13G A69U, for which the self-cleavage was 0.18.
Take U9C A22G C38U A69G U102C A124G: the self-cleavage was 1.02.
The same measure for U9A G74A U81A A136G: 1.11; for U9C A121G A141G: 1.61; for U9A U14C A67U U130A A142G: 0.25.
For G8A U13G U81A U96A U132C the value was 0.23; for U9A U14C A57G G135A, 0.87.
The same measure for U9C A64G U104A: 0.69; for U9C A50G U91C C146U: 1.15.
Regarding G8A U13C A43G C99U U134C, the self-cleavage turned out to be 1.11.
With U9C A78G U87A C95U, the self-cleavage came out at 0.08.
The same measure for G8A A22G A24U A59U U91A U96C: 0.2; for U9C U12A U39C A79G A117U A138G: 1.15; for G7C U87C C118U: 0.19.
As to G7A U87C U104C A141G, the self-cleavage was 0.29.
The same measure for U9A U102C U115A: 1.53.
The same measure for G7U G36C U45C U102C A138U: 1.19; for U9C G10A A94G U104C: 0.54.
The same measure for G8A U47C U62A: 0.02; for U9C U12A A107G A142G: 1.21.
Consider U9C U14C A69U A92G A136G, for which the self-cleavage worked out at 0.33.
Take U9A A67U U81G C118A A140G A141G: the self-cleavage was found to be 0.12.
For G8A U81A A107G U134A the value was 1.63; for G8C G35A U39C U73A A141G, 0.43.
For G8C A64U U109C U115A the value was 0.47; for G7U U47G G83A, 0.27; for G8A A42G A50G G114C A142G, 0.9.
The same measure for U9A A57U U62C A94G U108C C113U A140G C145U: 0; for G8A U14C A50C C71A: 0.26; for U9C A107U U112C: 1.38.
In the case of U9C A59G U85G A92G, the self-cleavage came out at 0.42.
The same measure for U9C U13C A59G A65G: 0; for U9C G21U G35U: 1.05.
The same measure for U9A U47C U102C: 1.62.
For U9A A65G A94G the value was 0.11; for U9C A30U U62C A129U A138G A141G, 0.25.
As to G8A U9C U15C A24U A67C U81A U87A U115C, the self-cleavage came to 0.27.
The same measure for U9C C61U A77G A136G: 0.26.
For U9A A64G G72A A117G U132A the value was 0.16; for U9A U81A A124G, 0.85; for U9A U39G U45C U104A, 0.
As for G8A A43G U45C A141U, the self-cleavage was 1.1.
The same measure for G8A A43G U47C A124U A136U: 0.95; for G7U U13A U46A A69G: 0.62.
The same measure for U9A A78U A107G: 1.68; for U9A A42G A57C: 0; for U9A A31G A77U A92C: 0.3.
For the variant U9A U62C U96C C113U, the self-cleavage is 0.
For U9A U45C U81A U85C the value was 0.27.
The same measure for G8A U115C A121C A138U: 1.02; for U9A A78U U119A: 2.22.
The same measure for U9A A57G U91C: 0; for U9C G10A U132C U134C A140G: 1.97; for G7U A59U A64U C113A A124U: 0.16.
Regarding U9C A42G U96C, the self-cleavage was 0.16.
For U9A U45C A69U U102C the value was 0.33; for U9A U96C U108C C145U, 0.18; for U9A U39C G58A C145A, 0.09.
For U9A U81A U100C the value was 2.49; for U9C G44U A140G, 1.94; for U9A A65G A67G, 0.26.
The same measure for G7A U26A G105A A142G: 1.12; for G8U U62C U85C A94G: 0; for U9C A43G U62A A78G: 0.
In the case of U9C G11U A121G, the self-cleavage is 1.51.
In the case of G8A U45G A140U, the self-cleavage stood at 1.72.
In the case of U9C U13C A22G G40U A77U, the self-cleavage amounted to 0.92.
For U9A A57U A136G the value was 0.07.
Regarding G8A U15A U62C, the self-cleavage is 0.2.
For G8C U130C A142G the value was 2.27; for U9A U15C U39A, 0.77; for U9A A59G C84A C103U, 0.09.
The same measure for U9A U13C A57G U62A U81C: 0.
The same measure for U9A A117U U143C: 0.54.
U9C A43G A59G A64G: the self-cleavage worked out at 0.
The same measure for G7U U39C A64C A67G: 0.
The same measure for U9A A42G A50U A94G U109C: 0.
For G8A U15C U73C A77G A138G the value was 2.83; for U9C G21U U108A, 1.81; for U9A U13C A129U, 0.61.
In the case of G7U A69G A107G, the self-cleavage came to 0.84.
The same measure for U9A C19U A50G A79G: 0.75; for U9A U45C A94G: 1.64; for G8A A42G U100C G126A A141G: 2.41.
For U9A G60A U73C U115G the value was 0.12; for G8A G27A G35A U115A, 0.97; for U9C C17U A50G A136G, 1.17.
For G7C U134G C145U the value was 2.66.
Take U9C A50G A141G: the self-cleavage stood at 1.43.
The same measure for U9C A57G U132C A138U: 1.78; for U9A U20C U39C A77G A129U A142G: 2.08.
For U9C U14C G36A G55A U81C U100C the value was 0.62; for U9A U12G U104C, 1.08.
For G7C U12C U47A G48U A129G U132C A140U the value was 1.19; for G8U U20A A43G A140G, 1.71; for U9A C71U C113U, 0.58.
For the variant U9A U102A U130C, the self-cleavage is 1.78.
On to U9C G32U A50G A78G C133A, for which the self-cleavage is 0.91.
The same measure for G8C A22G A78G: 0.9; for G8A A64G A67U: 0.06.
The same measure for G7U U13A U45A: 1.01; for G8C U12G A59G U102A: 0.23.
In the case of G7U U14A U91C A107G, the self-cleavage amounted to 1.31.
For U9A U45C A67U the value was 0.15; for U9A G32A A65G A77G, 0.08.
For U9A U20G A67G, the self-cleavage was 0.
The same measure for G7A U26C A50U U96A U119C: 0; for U9A U45C A65G A121G: 0.
For U9A G34A A107G A121G, the self-cleavage was determined as 0.54.
For U9A U87A U100C the value was 0.18; for U9A U39C U73C A138U, 0.71; for U9A A22G A57U U104A, 0.
The same measure for U9C A30G U73A A124U: 1.19.
The same measure for U9C U12C C37G: 0.69.
In the case of U9C A24G U130C, the self-cleavage was found to be 0.98.
Take G7U U46A U102A U130C: the self-cleavage came out at 1.78.
For G7U C16U A77G U130C A142U the value was 1.82; for U9C A67G U100C, 1.75.
In the case of U9C U14C A57U A64U C76U A92C A117G, the self-cleavage came to 0.14.
The same measure for U9A U12A U115A U119C G137U: 0.44; for G8A A43G A64G A65U A142G: 0.
For U9C G89U U102G the value was 0.04.
For G7U A42G U102C A140G the value was 2.1; for G7U A59G U100A A140G, 0.2.
U9A U108C A117G U134C U143A: the self-cleavage stood at 0.
The same measure for U9C C28A A136U: 1.03.
The same measure for U9C A69U A77G U130C: 0.12; for U9A U104C G135A: 1.67.
For U9C U14C C56U the value was 0.2; for U9A A65U A138G, 0.26.
U9A A67G A142U: the self-cleavage came out at 1.06.
For U9C C38A A77U A79G the value was 1.65.
For G8A A42G A67U the value was 0.18; for G7A U62C A67G U132C, 0.1.
With U9A A65U A69G A79U G106A U108C A136U, the self-cleavage stood at 0.06.
For U9A A22G U132A the value was 0.75; for U9C A31G U85C, 0.
The same measure for U9C A67G U73C U87A A138G: 0.77; for U9A U26C U81C C113A: 1.58.
The same measure for U9C A67G U96A A140G: 0.19; for G8A A43G G55A A69G A142C: 0.2.
As for G7U A65G G125U, the self-cleavage is 0.09.
For the variant U9C U13C A31G U100C, the self-cleavage is 1.67.
The same measure for U9C A94G U102C: 0.38; for U9A U13C A42G A65G: 0.16.
The same measure for U9A U14C U102C A140G: 0.99.
The same measure for U9A U47A A64G A107G: 0.31; for G7U A117C A138G: 0.77; for U9A U23C G54A A94U A117G: 0.44.
As for U9A U62C U73A, the self-cleavage amounted to 0.03.
For G7U G60A U91C A136G the value was 0.
The same measure for U9A U13C A42G U134C: 1.36; for G7A U26G U29A A92G: 0.35; for U9C G48A A67G: 0.55.
The same measure for G7U G35A U143A: 1.1; for U9A U13A U119C: 0.73.
On to G8A A30G G54A U96A U108C U134C, for which the self-cleavage worked out at 0.12.
The same measure for U9A U15C U102C: 1.26.
